Results reported in the supplement of paper PMC10126150.
Sequences with one replicate were seen in a single cluster, so their values are uncertain.

Test system: ATP
Test: switch fluorescence ratio, 500 uM ATP over buffer (Cy3 cluster intensity, sum of 5 cycles each) (fold (ratio)); higher = stronger signal-on switching upon ATP binding; sequences stand for … in TCGTCGGCAGCGTCAGATGTGTATAAGAGACAGTTTTTTTTTTTTTTTTTTTTTTTTT…TC
Details: aptamer strand: ATP DNA aptamer (quencher-CACCTGGGGGAGTATTGCGGAGGAAGG + anchor), 100 nM annealed; ATP concentration: 500 uM; one replicate
Procedure, shortened: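 Clusters carrying Cy3-labelled switching strands on a modified Illumina MiSeq flow-cell were annealed to 100 nM quencher-labelled ATP aptamer and imaged in selection buffer. They were imaged again after 15 min with 500 uM ATP at 22 °C, over five buffer/ATP cycles with NaOH stripping and re-annealing in between. For each cluster, the fluorescence ratio is the summed Cy3 intensity of the target cycles divided by that of the buffer cycles, averaged per switch-domain sequence. Clusters outside 100-1000 RFU were left out.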
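Note: ATP exposure 15 min at 22 °C before imaging.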

Row | Sequence | switch fluorescence ratio
1 | AGTGTGACGT | 1.04
2 | TAATGAATAT | 1
3 | AATCACAGTA | 1.06
4 | TCGATACTTG | 1.02
5 | TCAGTATAAT | 1.02
6 | GCATGAGGGG | 1.01
7 | TAATTAACCA | 0.961
8 | AGGAACTCCA | 0.99
9 | CCGTCGCCT | 1.2
10 | CTGAATCTG | 1.03
11 | TTCGTTACGG | 1.03
12 | TGCAAGTGAT | 0.986
13 | AGGGTATACG | 0.998
14 | ACTATTTAAC | 1.06
15 | CTACCGATAG | 1.36
16 | GTACAGGAAC | 1.05
17 | GTTCTACGGC | 1.04
18 | GTTCTCCTTT | 1.01
19 | CAATCTGCTA | 1.1
20 | TTTCCGAATA | 5.7
21 | TCATTAGCGC | 1
22 | TGCATCTCTT | 2.59
23 | TCCATGGCGA | 1.13

Row | Sequence | switch fluorescence ratio
24 | AGTCCATTCG | 0.993
25 | GTACAACCAG | 1.05
26 | AGGGTTACGT | 0.986
27 | CTATGTGGCA | 1.23
28 | CTTTGTTAAC | 0.958
29 | GGTTCCACTT | 0.993
30 | AGGGTTACAT | 0.997
31 | ATATAACAGC | 1.05
32 | TAAATAGGGG | 1
33 | ATCTTGATAC | 1.01
34 | TTCGTCTCCC | 1.06
35 | TCCGTATTT | 1.02
36 | ACGGTCTTTA | 0.98
37 | CATTTTAATG | 0.985
38 | AACCCAGCAT | 1.18
39 | ACAGATGAAC | 1.03
40 | TATGGTTGTG | 0.974
41 | GTTGGTCAGT | 0.981
42 | CCTCAACTTT | 1.33
43 | TCTGCACGTT | 1.06
44 | CCTGTAACGA | 1.06
45 | TCAGAGATTA | 0.959
46 | GGGATGAGAA | 0.999

Row | Sequence | switch fluorescence ratio
47 | GCCATACCAT | 1.01
48 | AAGATGCCTG | 1.04
49 | ATTGGATAGT | 0.999
50 | TGGGAACTTT | 1.12
51 | TGATACAGTA | 0.967
52 | CAACCCTCGA | 1.03
53 | GACCAGCGTG | 1.03
54 | GCATTGTTTC | 0.985
55 | TCAAATCTTT | 0.991
56 | CAATGCATCT | 1
57 | CTTTGTGGAA | 0.974
58 | TATAAAGAGT | 0.967
59 | TGGTTTGTGA | 1.36
60 | GTTATTACTC | 1.04
61 | GCTAATGG | 1.5
62 | TGACGGACGA | 1.21
63 | AGAAGGTCGT | 1.04
64 | ATCTCAGACT | 1.02
65 | CGAACCATTT | 1.05
66 | TTCGCCTACT | 1.14
67 | CGTGAGCTCT | 1.01
68 | TCCTTTAGCG | 1.21
69 | GCTTTGGGA | 1.04

Row | Sequence | switch fluorescence ratio
70 | TTGTCGGGGG | 1.03
71 | GCACCTATGC | 1.03
72 | AGGCTAGTTA | 0.947
73 | ACTTTACGG | 1.33
74 | CGTGCGAACG | 0.992
75 | ATAAGAAGCT | 1.03
76 | GGCTAGTCGC | 0.982
77 | CTAATATCGG | 1.04
78 | AATGGGGTC | 1
79 | ACAATCATCT | 1.01
80 | GGGTCTCGG | 1.03
81 | CGCTACCAAC | 1.78
82 | CTACTAGTGC | 1.13
83 | CCCTGATTAC | 1.71
84 | GTAAATATAA | 1.01
85 | CCCCTTAAAG | 1.02
86 | CTCTGGGCGT | 0.974
87 | GTATTGGCTC | 1.01
88 | ATTCTAATAG | 0.981
89 | GATATTGCAT | 1.02
90 | ATACTAGTTT | 0.993
91 | TGAACGGGGT | 0.987
92 | GAGTAAGAGA | 0.961

Row | Sequence | switch fluorescence ratio
93 | CTCTAGGTCA | 1.01
94 | TCCACGAATT | 1.03
95 | AAGGACCGTT | 0.995
96 | GCTTTCGGGG | 0.964
97 | GCTTTCACGT | 0.976
98 | ATGAGTAAAA | 1.02
99 | AAATAGATAT | 0.959
100 | TGCGTGGAGG | 1.06
101 | AGGGCGACGG | 1.02
102 | ATTGACCAGT | 1.06
103 | CTGAGTAAGT | 1
104 | TACTCAAGCA | 1.47
105 | ATGTTGATG | 0.991
106 | GATAGTAG | 1
107 | CCCGTTTCGA | 0.995
108 | ACGTTGAAAT | 1.05
109 | AGATTGCAGC | 0.992
110 | AGACAAGGTA | 1.17
111 | AGTCGTATGC | 0.943
112 | TTTCCTTTAC | 1.24
113 | GATAACGCCA | 1.3
114 | TTACTACATC | 1.03
115 | AGGCAACGGC | 1.05

Row | Sequence | switch fluorescence ratio
116 | TGAGGGAGTC | 0.996
117 | TGAATAGGCT | 0.999
118 | ATAACGCAAC | 1.28
119 | CTTTTAAGAG | 1.06
120 | TCGGTGGTCT | 0.992
121 | GCGCACTTTT | 1.06
122 | AAGTTGTTTG | 0.943
123 | AAGTCGCGAG | 1.03
124 | CCAGACCTCA | 1.03
125 | TTCTTTTATT | 0.985
126 | AATAGTTCCT | 1.04
127 | AAGGTAATAG | 1.08
128 | ATATTTAGCA | 1.03
129 | CCTGGTGCGT | 1.45
130 | TAAGTAAGAC | 1.7
131 | TTGTCAAAAT | 1.06
132 | AGTTTTAGGC | 0.991
133 | GTCGTTAAAC | 1.04
134 | CGGCTAAG | 1.02
135 | ACATAGGTAG | 0.935
136 | GATAGGAAGA | 1.03
137 | GCGGATTTGG | 0.992
138 | AGTTTTACGT | 1.03

Row | Sequence | switch fluorescence ratio
139 | TCAGTGCTCT | 1
140 | GGAACTGGTG | 1.08
141 | CCTGCCTATA | 2.06
142 | AGTTCCTGT | 0.985
143 | AACCCGGCAT | 1.11
144 | AGTTCTGCGT | 1.09
145 | TTTAAATGCT | 1.03
146 | GGCCCCTGCG | 1.01
147 | CCAGAGCGCA | 1.96
148 | ACGATTTTAT | 0.983
149 | TCCCTTTTAC | 1.23
150 | ATGTTCAGTA | 0.991
151 | AAAGCATAAT | 0.989
152 | GAGGGTATG | 1.03
153 | TTGACTGCGA | 1.1
154 | GCAATTGCGT | 0.994
155 | AAGAAAGCGT | 1.03
156 | TGTTAAAGGC | 0.973
157 | CCGATTATGG | 1.11
